# In the supplement of paper PMC3334620:
# Whole data set: some 33,000 sequences, median “E-score (-0.5 to 0.5)” near -0.012, cut for the highest 2% near 0.27. Some of the results follow.
# Target: T1, Vhr1 (UniProt P40522)
# T1 sequence: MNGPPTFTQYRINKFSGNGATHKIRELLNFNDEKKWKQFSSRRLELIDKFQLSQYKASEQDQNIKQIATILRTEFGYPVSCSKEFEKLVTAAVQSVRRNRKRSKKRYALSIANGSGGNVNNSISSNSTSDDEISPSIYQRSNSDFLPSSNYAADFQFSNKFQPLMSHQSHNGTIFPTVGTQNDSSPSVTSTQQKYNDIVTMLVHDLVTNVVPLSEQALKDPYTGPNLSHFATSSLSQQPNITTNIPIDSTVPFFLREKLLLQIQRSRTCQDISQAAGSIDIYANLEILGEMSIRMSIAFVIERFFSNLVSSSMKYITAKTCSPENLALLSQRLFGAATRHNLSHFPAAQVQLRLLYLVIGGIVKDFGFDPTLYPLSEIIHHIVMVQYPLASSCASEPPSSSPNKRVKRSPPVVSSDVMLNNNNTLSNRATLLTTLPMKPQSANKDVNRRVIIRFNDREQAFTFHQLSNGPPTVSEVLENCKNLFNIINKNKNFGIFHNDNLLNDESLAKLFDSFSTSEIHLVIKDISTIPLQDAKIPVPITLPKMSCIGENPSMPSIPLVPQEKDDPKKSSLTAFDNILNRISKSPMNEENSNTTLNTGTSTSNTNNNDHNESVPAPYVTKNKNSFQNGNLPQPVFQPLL
# Experiment: PBM E-score (8-mer binding enrichment) (E-score (-0.5 to 0.5)); higher = stronger / more preferred TF binding; most listed sequences are background and not binding sites
# Conditions: protein concentration: 200 nM; construct: GST-full length
# Protocol: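 Universal 'all 10-mer' protein binding microarrays (Agilent AMADID 015681) probed with GST-tagged S. cerevisiae TFs (full-length or DBD) made by in vitro transcription/translation (PURExpress), about 100-200 nM. Bound TF was detected with fluorescent anti-GST. Each ungapped 8-mer (which stands for itself and its reverse complement) is scored by the PBM enrichment score (E-score), a modified Wilcoxon-Mann-Whitney statistic from -0.5 to +0.5, computed with the Universal PBM Analysis Suite. Scale: above 0.35 generally sequence-specific binding.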
row,Sequence,PBM E-score
1,TCCCTCGA,0.0201
2,CGAACGCG,0.075
3,GCAACTAA,0.0737
4,CGTTTCGC,-0.0307
5,CAGCATGG,0.115
6,AGGCAGGG,0.0138
7,AGGAGAGG,-0.163
8,CAGCGAGC,0.135
9,ATAGGAAT,-0.0918
10,GAAATACC,-0.0176
11,GAAGCCCC,-0.201
12,GAACGCTC,-0.141
13,AGCCCGCC,0.186
14,AGCAATCA,0.122
15,ACGCACCC,-0.0712
16,CTCTGTAC,-0.0401
17,ATCAGAAT,0.105
18,CTACGTTC,-0.199
19,CTTCATGA,0.145
20,ATATGACC,0.106
21,CCTGAGTC,0.461
22,GAGAACGC,0.0381

row,Sequence,PBM E-score
1,ATGTGCCC,0.0949
2,AGGAGCAG,-0.303
3,CATTACTC,0.22
4,GTAATGAA,-0.104
5,AAACCATT,-0.0648
6,CCGCATAG,0.0726
7,GCTTAAAC,-0.18
8,CTCGCCAA,-0.164
9,ACCATGTA,0.261
10,ATTTGGTG,-0.068
11,ATTCCGTA,0.0633
12,ATCACCGG,0.0794
13,CTTTGCTA,-0.0197
14,GCGTTTAC,-0.163
15,CGCCGTAA,-0.108
16,AAGTCCCT,-0.214
17,TCCCCTCA,0.245
18,GGAGAAGA,-0.18
19,CCCCCTCC,-0.0898
20,GTGAGGCA,0.00166
21,CTAAGGAA,-0.266
22,ACACATGG,0.215

row,Sequence,PBM E-score
1,AAACTCGA,0.1
2,CTGCTCGA,-0.00983
3,ACCATATG,0.1
4,TAGCCCCA,0.0719
5,CAGAAGAC,-0.0431
6,CGCGTGCC,0.0556
7,AGGTCCAG,0.0702
8,ATAAGCCA,-0.0824
9,ACAGGTGG,0.00194
10,CGCCCACA,0.193
11,AGCGTTCG,0.138
12,ATAGGGCG,-0.0674
13,AGAGCTGC,-0.194
14,AGTATAGC,-0.174
15,GATAATCC,-0.112
16,AAGGTAGC,-0.205
17,CCTGCACG,0.0318
18,ATGCTACA,-0.11
19,CTATTGAC,0.0597
20,CGTAAGAA,-0.34
21,ACAGTTAC,-0.0245
22,AACCACGC,0.0111

row,Sequence,PBM E-score
1,CTATGGTA,0.0793
2,ACAATATC,0.0645
3,CGGTCGGA,0.00853
4,GCTCACGA,-0.045
5,GATTGTCC,-0.0817
6,CCGCCGGA,-0.0234
7,AACCAAGC,0.0559
8,ATGCGTGA,0.193
9,ATGCTGTC,-0.123
10,TAAAGGAA,-0.25
11,CGTAGACC,-0.297
12,CGCGTACA,-0.018
13,AGTGCGTC,-0.18
14,GACCATAA,0.0846
15,ACAATTCC,0.0579
16,ACAACGAA,0.037
17,CGCCGAAG,-0.0818
18,ACCACTGG,-0.0115
19,GCCCAGGC,-0.107
20,ACTGCAAT,0.198
